Read counts are not given, so values of variants with three or more changes are uncertain.
B1: OR4K15 (parent)
chain: GUUAACGGUCAUAGGCCAUGGAAACUAGGAGCACCAUUUCGCUGCCAGUGAAGAAAUGAACAAAGAAAAUCUGGGCCAGGCAGGCAUCAAAAGAAAUAGUCUUGCGCUCAACCAGAAAGUCUGUAAUCAUUUUAAGGGUA

Variants of: B1
Experiment: self-cleavage, relative activity (ratio to wild type); higher = more cleavage; in vitro, sequencing; the parent is a self-cleaving ribozyme

| Variant | self-cleavage |
| --- | --- |
| A23G A63G U87C A111U A140G | 0.14 |
| A23G G44U U103C | 1.08 |
| A24C A91G A96G U108C | 0 |
| A23G A62G A94G | 1.36 |
| A22U A47C U133C | 1.14 |
| A23U A24G A59G A63G A78G U87C A95G | 0.12 |
| A22U A51U U72C U139C | 0.28 |
| A23G A82U A140G | 0.18 |
| A23G A69U A96U | 0.88 |
| A24C A54G C85U U87A A95G A110G | 0.11 |
| A23U U43C A59G A86G A129G | 0.5 |
| A23G U49C A69G A118G A129U | 0.44 |
| A23G U38C A51G A62C A111G U133C | 0 |
| A24C A63G A68G | 1.02 |
| A23U U38C A91G A114G A126U | 0.81 |
| A23G U39A A95G | 1.55 |
| A22U A66G A78U | 0.25 |
| A23G A64G A96G A98G U103C | 0.09 |
| A23G G83A U131A | 0.99 |
| A23G A30G A55G A129U | 0.75 |
| A24C A36G U70C A78U A96G A116U | 0.06 |
| A23G U100C U102A | 1.82 |
| A23U U37C U43A A98U U100C | 2.89 |
| A23U A56G U127C | 1.31 |

| Variant | self-cleavage |
| --- | --- |
| A23C U57C A63G | 1.17 |
| A24C U37C A96G | 1.16 |
| A23G A24C A68G | 1.34 |
| A23G A33G U72C A86U A94G U120A | 0.06 |
| A23G A33G A90G A118G A140G | 0.16 |
| A23G A47U A68G A78U | 0.33 |
| A23U G53A A64G U72C | 0.34 |
| A23G A89G A126U U127C | 0.51 |
| A23G U43A U49G U72A | 0.08 |
| A23G A95G U103C U124C | 0.53 |
| A23C A66G U108C U122C | 0.01 |
| A23U A90G A134G U139C | 1.35 |
| A23G A54G U120C | 0.73 |
| A24C A68G A95G | 2.31 |
| A22U A56G A98G | 0.88 |
| A23U A36G U108C | 0.02 |
| A23G A62G A64G | 0.65 |
| A23G A30G A60G A125G | 0.05 |
| A24C A66G A78U U102A | 0.06 |
| A23G A78U A91G | 0.13 |
| A22U A33G U72A A92U A117G A140G | 0.11 |
| A23U A60G A82U A92G A95G U103G U124C A135U | 0.03 |
| A23G A82U U131C | 0.21 |
| A23G U87A C109U | 0.36 |

| Variant | self-cleavage |
| --- | --- |
| A23G A64G A68G U87A | 1.63 |
| A22U A54G U103C C105U A116G U127C | 0 |
| A23U A92G A96G | 0.86 |
| A22U U43C A47G A68G U100C U108A | 0.03 |
| A23G U26C A33G A47C C109A | 0.5 |
| A23U A89U U100C A135G | 2.81 |
| A23G A47U U120C | 0.16 |
| A23G A96G U120A A134G | 1.84 |
| A23G U122C U132A | 0.48 |
| A23G A92G U102C A118U A135G | 1.42 |
| A24C A47G G73U A125G | 0.04 |
| A23G G53A U130C U132A | 2 |
| A23U A47G A55G G93A G106A U127A | 0.01 |
| A23G A69G G137A | 1.22 |
| A23G A36G A47U A56G A60G | 0.54 |
| A23G U49A A69G | 0.47 |
| A23C A24G A51G A82G A111G | 0.04 |
| A23G A27U C40U A47G G79A | 0.19 |
| A23G A62G A116G | 0.77 |
| A23G A68G U103C | 1.4 |
| A23G U70C G80A A92G | 0.13 |
| A23G A52G A63G A82G A91G U132C | 0.11 |
| A23G A36U A56G | 1.65 |
| A22U U100C A111G A117G | 0.01 |

| Variant | self-cleavage |
| --- | --- |
| A23G U122C A126G | 0.98 |
| A24C A66G U132C | 1.44 |
| A23G A67C U139C | 1.37 |
| A23C U37C A98C G106A A118G | 0 |
| A23G U26C A78C | 0.12 |
| A23G A89G U108C U120C | 0.02 |
| A23G U72C U103C A125G | 0.03 |
| A23U U39C A95G U132C | 1.02 |
| A23G A51G A59G A67G | 1.67 |
| A23G G31A A82G G137A | 0.21 |
| A23C G44A A66U U100A | 0.59 |
| A24C A30G A90G | 1.33 |
| A24C U26C A68G A90G A91G A98U U122C | 1.25 |
| A23G G28A A64G A66G A96G U100C U131C | 1.2 |
| A23U A33G A54G A118G | 0.55 |
| A23G U38C U108C | 0.05 |
| A23U A27G A95G U132C | 1.54 |
| A23G A33U A54G U72A A90G U108C | 0.02 |
| A23G A92G A134G | 1.54 |
| A23G U108C U122G | 0.02 |
| A22U A78G A91U | 0.39 |
| A23U U43A A91G | 0.23 |
| A23G G74A U100C A111U G138A | 0.02 |
| A23G A51G U87C A98U | 1.2 |

| Variant | self-cleavage |
| --- | --- |
| A23G A69G U122C | 0.61 |
| A23C A52G A118G U122C | 1.8 |
| A23G U26C A30G U43C G74U A89G U139A | 0.18 |
| A22U A36C A60G A94G A95G | 1.31 |
| A23G A30U A66G C76U A90G | 0.17 |
| A22U U38C U102C U122C A135G | 2.06 |
| A22U U97C C105U A118G | 0.02 |
| A23U A24G C76G A82G A116U | 0.12 |
| A23G A52G A54G A69G | 1.01 |
| A23G A64G G83A | 1.49 |
| A23G A33C A62U U70A | 0.88 |
| A23G G74A U108C A114U | 0.02 |
| A23G A91G A96G | 1.2 |
| A23G A59G U72C | 0.31 |
| A22U A117C U122C U131C | 0.97 |
| A23G U37C U43G A63G A118G U120C | 0.72 |
| A23G A30G U38A G123A | 1.73 |
| A23U A66G A67G G79U A117U | 0.1 |
| A23G A36U A52G A64G A69G A86U | 0.89 |
| A24G A27U A55G A62G U97C | 0.43 |
| A23G U49C A94G | 0.79 |
| A23G A47U C85U A98G | 0.21 |
| A23G A82U A96U | 0.19 |
| A22U U49A U103C U132C A140G | 0.34 |

| Variant | self-cleavage |
| --- | --- |
| A23G U49C G79A | 0.21 |
| A24C A62U A82G A114U | 0.06 |
| A23G U49C U97C C105U | 0.3 |
| A23G A92G A114C | 0.01 |
| A23G U37C A56G | 1.18 |
| A23G U49C A62U A117U | 1 |
| A23G C25A A111G | 0.06 |
| A23U A118G U133C A140U | 1.75 |
| A23G A54G A68G A89G A96G | 1.13 |
| A23G A78G A92G A94G | 0.24 |
| A23G U38A A89G U108C | 0.08 |
| A23G A59G A92G | 1.36 |
| A23G A51G A91U | 1.17 |
| A23G A90G A91G A92G A129G | 0.48 |
| A24C A63G U87C U108A | 0.01 |
| A23U A95U U122A A134G | 1.39 |
| A24C A68G A111G U130C | 0 |
| A23G A24G A47G A67G A94G | 0.71 |
| A23C G84A U100C U122C | 0.37 |
| A23G A89G A114G U120A | 0.1 |
| A23G A69G G115U U127C | 0.06 |
| A23G A30U U49C A55G A62U A92G A114U | 0 |
| A23G U43C A82U A91G U122C U131C | 0.01 |
| A23G A51G U127C | 0.78 |

| Variant | self-cleavage |
| --- | --- |
| A23G A86U A91G A94G A96G | 1.54 |
| A23G A66G A86G | 0.21 |
| A23G C42U A78G | 0.26 |
| A22U U38C U49C A68G | 1.02 |
| A23G U43C A56G G74A U102A | 0.05 |
| A23G A52U A118G | 0.92 |
| A23G U43A A63G A68U | 1.8 |
| A23G A69U C77U U131C | 1.6 |
| A23G U38C U57A | 0.84 |
| A22U A90G U102C A116G | 1.4 |
| A22U A92G G99A | 0.48 |
| A24C G29A U57A | 1.69 |
| A23G A69C G75U A117G | 0.14 |
| A23U C107U U122G | 0.03 |
| A23G A59G G65U | 1.48 |
| A23G U49C A125U | 1.09 |
| A22U A52G A63G U122C U124C | 0.11 |
| A23U A24G A67G | 1.15 |
| A23G A33G A89U A110G | 0.09 |
| A23G A68C G84U A116G | 0.27 |
| A23U U38C A56G U102C | 2.19 |
| A23G A117G A129G | 0.39 |
| A23G U43A A96G A129G | 1.25 |

From the RNAGym collection of RNA variant scans (doi:10.7554/elife.90254)
